Experimental findings from paper PMC6135549 are described below.

The chains behind the UniProt entries cited, without tags or fusion partners. Where a name states a change or a piece, a line headed by the entry shows the natural chain unless it says otherwise. A line that says so, or that is headed by a name, gives the form on record, which may keep a tag or linker. Residues count along the entry.
UniProt Q04759: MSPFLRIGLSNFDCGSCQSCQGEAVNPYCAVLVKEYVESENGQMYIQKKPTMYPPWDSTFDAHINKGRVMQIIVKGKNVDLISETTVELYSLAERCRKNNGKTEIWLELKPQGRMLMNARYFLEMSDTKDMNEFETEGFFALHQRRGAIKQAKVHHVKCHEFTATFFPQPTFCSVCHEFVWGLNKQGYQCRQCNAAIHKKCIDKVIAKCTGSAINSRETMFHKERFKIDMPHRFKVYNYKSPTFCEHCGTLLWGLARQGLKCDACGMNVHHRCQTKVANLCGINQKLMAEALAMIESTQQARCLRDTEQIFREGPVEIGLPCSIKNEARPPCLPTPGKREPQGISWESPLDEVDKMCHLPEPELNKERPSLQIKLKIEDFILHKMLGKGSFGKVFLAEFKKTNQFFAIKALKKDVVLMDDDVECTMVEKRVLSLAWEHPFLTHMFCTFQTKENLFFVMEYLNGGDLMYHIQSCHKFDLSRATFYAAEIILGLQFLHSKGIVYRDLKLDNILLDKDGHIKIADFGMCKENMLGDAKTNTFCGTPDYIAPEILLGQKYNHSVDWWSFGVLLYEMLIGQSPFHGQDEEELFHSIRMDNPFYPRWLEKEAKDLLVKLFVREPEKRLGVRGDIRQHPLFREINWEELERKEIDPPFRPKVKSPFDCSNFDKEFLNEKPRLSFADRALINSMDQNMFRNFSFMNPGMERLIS
UniProt Q8IVH8: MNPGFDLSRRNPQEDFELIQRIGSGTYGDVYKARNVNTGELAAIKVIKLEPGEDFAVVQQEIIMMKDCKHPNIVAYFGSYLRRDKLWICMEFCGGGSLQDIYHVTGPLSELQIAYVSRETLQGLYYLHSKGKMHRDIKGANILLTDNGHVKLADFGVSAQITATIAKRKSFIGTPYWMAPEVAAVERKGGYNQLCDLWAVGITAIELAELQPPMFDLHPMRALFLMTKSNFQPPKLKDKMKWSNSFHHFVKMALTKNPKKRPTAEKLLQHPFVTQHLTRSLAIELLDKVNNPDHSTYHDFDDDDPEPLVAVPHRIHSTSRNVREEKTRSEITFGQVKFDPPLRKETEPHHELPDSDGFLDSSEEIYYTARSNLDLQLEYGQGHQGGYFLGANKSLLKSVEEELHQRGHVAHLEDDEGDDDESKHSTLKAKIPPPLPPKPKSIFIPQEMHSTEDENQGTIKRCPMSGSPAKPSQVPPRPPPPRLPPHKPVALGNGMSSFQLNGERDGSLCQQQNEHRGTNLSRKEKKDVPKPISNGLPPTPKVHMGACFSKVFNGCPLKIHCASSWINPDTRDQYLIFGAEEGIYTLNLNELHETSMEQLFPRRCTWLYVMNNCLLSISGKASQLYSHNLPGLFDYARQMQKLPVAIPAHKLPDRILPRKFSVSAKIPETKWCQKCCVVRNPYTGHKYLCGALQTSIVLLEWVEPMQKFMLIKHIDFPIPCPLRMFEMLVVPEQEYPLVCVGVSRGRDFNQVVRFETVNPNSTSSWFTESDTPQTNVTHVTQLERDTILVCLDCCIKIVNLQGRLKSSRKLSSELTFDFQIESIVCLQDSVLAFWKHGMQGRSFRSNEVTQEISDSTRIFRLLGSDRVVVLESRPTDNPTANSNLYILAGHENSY
UniProt P35869, residues 11-848: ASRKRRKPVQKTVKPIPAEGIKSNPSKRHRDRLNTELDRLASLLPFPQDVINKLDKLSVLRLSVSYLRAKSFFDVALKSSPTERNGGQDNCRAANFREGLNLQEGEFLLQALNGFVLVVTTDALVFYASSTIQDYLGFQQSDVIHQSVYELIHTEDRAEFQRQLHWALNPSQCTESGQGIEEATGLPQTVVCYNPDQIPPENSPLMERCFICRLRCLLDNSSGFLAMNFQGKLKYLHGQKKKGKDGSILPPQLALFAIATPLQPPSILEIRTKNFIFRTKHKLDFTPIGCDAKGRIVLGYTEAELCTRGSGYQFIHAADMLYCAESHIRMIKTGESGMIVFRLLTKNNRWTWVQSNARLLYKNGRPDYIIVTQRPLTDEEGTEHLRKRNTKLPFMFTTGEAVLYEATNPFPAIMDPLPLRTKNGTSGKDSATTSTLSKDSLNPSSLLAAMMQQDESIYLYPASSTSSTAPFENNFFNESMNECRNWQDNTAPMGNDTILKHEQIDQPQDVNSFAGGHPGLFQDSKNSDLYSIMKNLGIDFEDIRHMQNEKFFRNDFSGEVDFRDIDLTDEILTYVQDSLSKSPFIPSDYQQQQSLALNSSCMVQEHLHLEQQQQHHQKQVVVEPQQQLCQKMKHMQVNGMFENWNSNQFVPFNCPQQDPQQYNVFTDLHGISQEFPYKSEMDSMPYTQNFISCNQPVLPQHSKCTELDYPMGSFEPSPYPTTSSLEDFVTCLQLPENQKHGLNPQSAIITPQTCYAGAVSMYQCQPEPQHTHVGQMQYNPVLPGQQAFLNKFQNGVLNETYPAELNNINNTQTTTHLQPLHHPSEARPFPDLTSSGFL
Flag-tagged RORγt-S489A mutant (cells cotransfected with IKKβ) (P51450-2, form named): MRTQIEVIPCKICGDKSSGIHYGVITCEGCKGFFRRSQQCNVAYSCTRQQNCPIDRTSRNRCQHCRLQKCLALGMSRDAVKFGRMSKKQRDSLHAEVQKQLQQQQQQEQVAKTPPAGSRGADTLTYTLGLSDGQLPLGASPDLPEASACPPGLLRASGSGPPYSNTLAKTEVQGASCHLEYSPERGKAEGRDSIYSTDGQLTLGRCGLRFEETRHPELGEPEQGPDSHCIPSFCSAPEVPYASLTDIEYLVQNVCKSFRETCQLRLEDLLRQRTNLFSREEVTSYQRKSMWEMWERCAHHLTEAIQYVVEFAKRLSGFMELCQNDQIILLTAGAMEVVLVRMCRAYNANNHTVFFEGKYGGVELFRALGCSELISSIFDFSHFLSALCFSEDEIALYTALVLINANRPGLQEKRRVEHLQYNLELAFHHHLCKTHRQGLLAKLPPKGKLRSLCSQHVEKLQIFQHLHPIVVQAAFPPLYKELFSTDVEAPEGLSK
UniProt Q02111: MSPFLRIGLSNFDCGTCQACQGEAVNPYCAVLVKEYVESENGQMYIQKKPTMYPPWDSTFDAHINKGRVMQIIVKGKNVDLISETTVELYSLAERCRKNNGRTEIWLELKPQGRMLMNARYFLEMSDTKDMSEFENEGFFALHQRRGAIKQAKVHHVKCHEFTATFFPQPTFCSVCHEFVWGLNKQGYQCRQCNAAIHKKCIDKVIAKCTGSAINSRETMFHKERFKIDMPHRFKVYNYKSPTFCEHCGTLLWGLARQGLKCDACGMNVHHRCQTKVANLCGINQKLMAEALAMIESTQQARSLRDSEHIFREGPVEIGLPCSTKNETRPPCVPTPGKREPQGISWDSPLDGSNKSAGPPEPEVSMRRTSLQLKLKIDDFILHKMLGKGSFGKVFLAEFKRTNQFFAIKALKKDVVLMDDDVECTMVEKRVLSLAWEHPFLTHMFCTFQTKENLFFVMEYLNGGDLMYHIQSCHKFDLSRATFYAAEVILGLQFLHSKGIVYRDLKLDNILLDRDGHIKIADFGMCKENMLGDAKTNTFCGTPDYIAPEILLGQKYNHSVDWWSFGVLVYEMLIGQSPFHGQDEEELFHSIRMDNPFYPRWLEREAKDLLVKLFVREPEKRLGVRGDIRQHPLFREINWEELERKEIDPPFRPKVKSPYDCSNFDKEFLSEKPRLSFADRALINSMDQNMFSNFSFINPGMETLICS
UniProt P30561, residues 10-848: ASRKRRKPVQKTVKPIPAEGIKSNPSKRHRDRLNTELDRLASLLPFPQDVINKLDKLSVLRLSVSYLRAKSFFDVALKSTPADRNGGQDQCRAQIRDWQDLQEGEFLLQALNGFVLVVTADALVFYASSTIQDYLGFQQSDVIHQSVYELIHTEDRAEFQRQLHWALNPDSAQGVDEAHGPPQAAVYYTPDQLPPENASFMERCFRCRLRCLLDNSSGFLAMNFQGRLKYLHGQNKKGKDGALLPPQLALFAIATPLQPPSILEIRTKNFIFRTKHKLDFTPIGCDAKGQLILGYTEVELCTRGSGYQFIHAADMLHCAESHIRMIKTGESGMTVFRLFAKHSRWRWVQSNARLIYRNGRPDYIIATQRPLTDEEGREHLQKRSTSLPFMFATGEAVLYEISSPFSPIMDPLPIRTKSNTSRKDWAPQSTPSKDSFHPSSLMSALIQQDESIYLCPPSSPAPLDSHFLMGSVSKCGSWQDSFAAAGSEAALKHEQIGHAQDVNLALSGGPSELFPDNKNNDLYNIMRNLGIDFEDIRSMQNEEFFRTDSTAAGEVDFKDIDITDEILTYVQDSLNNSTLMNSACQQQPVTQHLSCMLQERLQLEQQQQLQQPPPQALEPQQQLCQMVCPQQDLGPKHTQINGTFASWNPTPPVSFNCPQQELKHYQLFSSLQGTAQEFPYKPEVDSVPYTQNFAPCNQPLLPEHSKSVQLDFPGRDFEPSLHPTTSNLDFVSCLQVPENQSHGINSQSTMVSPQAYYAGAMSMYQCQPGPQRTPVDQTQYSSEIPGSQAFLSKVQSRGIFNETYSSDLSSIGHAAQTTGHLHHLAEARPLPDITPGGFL

One assay has as its target PKCθ of the ALPHA assay (UniProt Q04759). Briefly: AlphaScreen or HTRF; ALPHA technology (PerkinElmer) protein-protein interaction assay; signal when the pair is within 200 nm; EnVision 2104 reader.
The target of assay [1] is germinal center kinase-like kinase (GLK) of the ALPHA assay (UniProt Q8IVH8). The description is as above.
A further assay has as its target Myc-tagged PKCθ (UniProt Q04759). In words: proximity ligation; in situ PLA with probes corresponding to Myc and Flag tags in Myc-PKCθ- and Flag-AhR-overexpressing HEK293T cells.
The target in a further assay is HA-tagged AhR (UniProt P35869). In words: co-IP; lysates of HEK293T cells transfected with HA-AhR and Flag-RORγt (WT or S489A) plus GLK-CFP, PKCθ-Myc, IKKβ-CFP, IKKα-Myc or vector.
Assay [2] has as its target purified recombinant GST-tagged AhR (UniProt P35869). In words: pull-down; GST pull-down: purified GST-AhR on glutathione Sepharose, 3 hours, with Flag-RORγt eluted with Flag peptides from HEK293T cells cotransfected with CFP-IKKβ or vector; washed with lysis buffer (125 mM NaCl, 0.2% NP-40) at 4°C; both purified.
Assay [3] addresses purified recombinant GST-PKCθ (UniProt Q04759). Briefly: in vitro binding assay; purified PKCθ and purified AhR (HA-AhR eluted with HA peptide from transfected HEK293T cells); both purified.
The next assay deals with CFP-tagged PKCθ (UniProt Q04759). Briefly: FRET or BRET; FRET in live PKCθ/AhR-cotransfected Jurkat T cells; excitation 430 nm, emission 530 nm; EnVision 2104 reader.
The target in assay [4] is retinoic-acid-receptor-related orphan nuclear receptor γt (RORγt), endogenous in murine T cells (mouse (endogenous in murine T cells)) (UniProt P51450). In words: condition: only T cells with IKKβ conditional knock-out (Lck-GLK;IKKβ^f/f;CD4-Cre); proximity ligation; in situ PLA for endogenous AhR and RORγt in peripheral blood T cells of Lck-GLK;IKKβ^f/f;CD4-Cre mice (IKKβ conditional knock-out).

The target of assay [5] is Ser489-phosphorylated RORγt, endogenous in murine T cells (mouse (endogenous in murine T cells)) (UniProt P51450). Briefly: proximity ligation; in situ PLA (Duolink In Situ Red) with antibodies to the endogenous proteins; murine peripheral blood or primary T cells of WT, Lck-GLK Tg and Lck-GLK;PKCθ-/- mice, or T cells stimulated with anti-CD3 antibodies plus streptavidin; signal at <40 nm.

For assay [6], the target named is protein kinase Cθ (PKCθ), endogenous in murine T cells (mouse (endogenous in murine T cells)) (UniProt Q02111). The assay is described as above.
Assay [7] has as its target retinoic-acid-receptor-related orphan nuclear receptor γt (RORγt), endogenous in murine T cells (mouse (endogenous in murine T cells)) (UniProt P51450). Described as above.
The target is the same in assay [8]. Briefly: condition: only T cells with IKKβ conditional knock-out (IKKβ^f/f;CD4-Cre), stimulated with anti-CD3; proximity ligation; in situ PLA for endogenous AhR and RORγt in primary T cells of IKKβ^f/f;CD4-Cre mice (IKKβ conditional knock-out) stimulated with anti-CD3 antibodies plus streptavidin.
For assay [9], the target named is protein kinase Cθ (PKCθ), endogenous in murine T cells (mouse (endogenous in murine T cells)) (UniProt Q02111). Briefly: co-IP; endogenous proteins; lysates of murine primary splenic T cells (WT and Lck-GLK Tg without stimulation; or stimulated with anti-CD3 antibodies plus streptavidin, 3 μg each per ml); 0.5 to 1 mg lysate, 1 μg antibody, protein A/G Sepharose, 4°C; washed with lysis buffer (125 mM NaCl, 0.2% NP-40).

For assay [10], the target named is retinoic-acid-receptor-related orphan nuclear receptor γt (RORγt), endogenous in murine T cells (mouse (endogenous in murine T cells)) (UniProt P51450). The description is as above.

These are yes or no findings as the source states them, for the method shown. For part of these data: Binding seen in cells or lysates may run through a third protein. Some binding calls cover weakened binding; strength is not graded here.

On to “AhR of the ALPHA assay (from UniProt P35869 11-848)”, for which the binding result is on record as “binds” with PKCθ of the ALPHA assay and “no binding” in [1].
On to “Flag-tagged AhR (from UniProt P35869 11-848)”, for which the binding result with Myc-tagged PKCθ is “binds”.
For the substance “Flag-tagged RORγt from cells cotransfected with IKKβ (phosphorylated at Ser489) (from UniProt P51450-2 1-495)”, the binding result (with HA-tagged AhR; in assay [2]) was “binds” each time.
As for “Flag-tagged RORγt-S489A mutant (cells cotransfected with IKKβ) (from UniProt P51450-2 1-495)”, the binding result with HA-tagged AhR is “no binding”.
In the case of “HA-tagged AhR (from UniProt P35869 11-848)”, in assay [3], the binding result was “binds”.
As for “YFP-tagged AhR (from UniProt P35869 11-848)”, in the assay with CFP-tagged PKCθ, the binding entry was “binds”.
For “aryl hydrocarbon receptor (AhR), endogenous in murine T cells (from UniProt P30561 10-848)”, the binding result in [4] is listed as “no binding”; in [5] it was “binds”; in assay [6] it was “binds”; in [7] it was “binds”; in assay [8], “no binding”; in assay [9], “binds”. The binding entry in assay [10] is “binds”.
